# Measured values reported in article PMC4336329 (PLoS ONE, 2015).
# Screen size: about 310,000 compounds; about 2,200 (0.71%) showed an effect of 50% or more. The effect is printed as a negative number. The list shows a part of the results.
# Target: human ether-à-go-go-related gene (hERG) potassium channel (human, UniProt Q12809)
# Experiment: primary screen, population patch clamp on CHO cells stably expressing hERG
# Chain of human ether-à-go-go-related gene (hERG) potassium channel (Q12809 whole entry, looked up): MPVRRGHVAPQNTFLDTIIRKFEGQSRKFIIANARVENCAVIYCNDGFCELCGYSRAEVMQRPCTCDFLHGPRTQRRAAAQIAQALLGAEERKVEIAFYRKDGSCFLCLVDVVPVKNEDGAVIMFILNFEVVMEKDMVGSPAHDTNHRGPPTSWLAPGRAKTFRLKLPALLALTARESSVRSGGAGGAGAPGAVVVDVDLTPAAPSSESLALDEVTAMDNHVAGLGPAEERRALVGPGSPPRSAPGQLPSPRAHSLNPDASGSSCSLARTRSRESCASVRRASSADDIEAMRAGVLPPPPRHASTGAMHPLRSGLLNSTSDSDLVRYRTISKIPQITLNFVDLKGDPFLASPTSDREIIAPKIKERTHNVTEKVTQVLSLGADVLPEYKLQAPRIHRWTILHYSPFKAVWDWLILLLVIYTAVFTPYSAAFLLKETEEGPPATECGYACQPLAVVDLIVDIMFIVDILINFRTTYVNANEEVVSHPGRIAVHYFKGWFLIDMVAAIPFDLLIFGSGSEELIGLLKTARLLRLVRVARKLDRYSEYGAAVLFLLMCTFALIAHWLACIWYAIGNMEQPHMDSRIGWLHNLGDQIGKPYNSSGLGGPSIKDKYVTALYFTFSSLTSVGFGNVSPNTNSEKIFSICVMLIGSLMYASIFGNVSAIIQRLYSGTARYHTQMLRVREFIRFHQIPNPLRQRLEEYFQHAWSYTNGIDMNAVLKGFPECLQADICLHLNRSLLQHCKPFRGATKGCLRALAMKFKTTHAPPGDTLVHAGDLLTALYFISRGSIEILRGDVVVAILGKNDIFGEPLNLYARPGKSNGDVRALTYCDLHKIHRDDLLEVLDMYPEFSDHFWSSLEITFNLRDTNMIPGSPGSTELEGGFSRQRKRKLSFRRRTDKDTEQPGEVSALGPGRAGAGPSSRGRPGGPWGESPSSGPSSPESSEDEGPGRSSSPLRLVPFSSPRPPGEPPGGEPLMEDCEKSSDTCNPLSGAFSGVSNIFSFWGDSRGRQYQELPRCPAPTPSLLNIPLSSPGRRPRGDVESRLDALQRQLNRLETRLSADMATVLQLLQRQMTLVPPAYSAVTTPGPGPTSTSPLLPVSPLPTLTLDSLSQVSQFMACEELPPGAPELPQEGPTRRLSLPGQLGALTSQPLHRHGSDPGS
row,Compound,"hERG current change (%, negative = inhibition) at 1uM"
1,O=C1Nc2ccccc2C(=O)N2C[C@@H](O)C[C@H]12,18.4%
2,CCN1CCN(c2cc(C)c3cc(NC(=O)c4cccnc4Cl)ccc3n2)CC1,-4.44%
3,CNC(=O)CSc1nnnn1-c1cc(C)ccc1C,4.74%
4,CCCn1c(N)c(C(=O)COC(=O)c2c(C)noc2C)c(=O)n(C)c1=O,4.74%
5,Nc1cc(N)cc(-c2nc3ccccc3[nH]2)c1,-1.26%
6,CCCCOC(=O)CCc1c(C)[nH]c(=O)c(C#N)c1C,-2.94%
7,COC(=O)c1ccc(CSc2nncn2C)cc1,-4.1%
8,O=C1CC(N2CCN(c3ccccc3)CC2)C(=O)N1CCc1ccccc1 (stereo not drawn),-17.3%
9,COCCNCc1ccccc1,0.65%
10,CCOC(=O)c1sc(NC(=O)CC)nc1C,6.16%
11,O=C(CN1CCCc2ccccc21)NCc1ccc2c(c1)OCO2,9.15%
12,Cc1cc(C)n2ncc(-c3cccc(Br)c3)c2n1,11.1%
13,CC(C)CCN1CCN(Cc2cccc(-n3cccn3)c2)CC1CCO (stereo not drawn),-26%
14,O=c1cnc2ccccc2n1Cc1ccc(Br)cc1,9.65%
15,CC(=O)N1CCN(c2ccccc2NC(=O)c2cc3ccccc3o2)CC1,5.48%
16,Cc1ccc(O)c(CNc2cnc3ccccc3c2)c1,8.36%
17,CCCc1nnc(NC(=O)C2CC(=O)N(CCc3ccc(F)cc3)C2)s1 (stereo not drawn),6.69%
18,CCn1c(SCC(=O)c2ccc3c(c2)OCCO3)nnc1C(C)C,7.74%
19,O=C(CCc1nc(-c2ccc(Cl)cc2)no1)OCc1ccc(Br)cc1,5.61%
20,CCOc1ccc2[nH]c(=O)c(CN(CCO)C(=O)c3ccc(OC)c(OC)c3)cc2c1,4.92%

row,Compound,"hERG current change (%, negative = inhibition) at 1uM"
1,O=C(NCc1cccc(Cl)c1)c1ccc(-c2csnn2)cc1,4.65%
2,COC(=O)Cc1ccc(NC(=S)NCc2ccc(S(N)(=O)=O)cc2)cc1,10.7%
3,CCCCNS(=O)(=O)c1ccc(NC(=O)C(Sc2ccccc2)c2ccccc2)cc1 (stereo not drawn),14.2%
4,CC(NC(=O)c1ccccc1N)c1ccccc1 (stereo not drawn),10.5%
5,O=C(CNc1cccc(C(F)(F)F)c1)N/N=C/c1ccccc1C(=O)O,8.48%
6,O=C(NC1CCCC1)C(c1ccc(F)cc1)N(C(=O)c1csnn1)c1ccccc1 (stereo not drawn),2.71%
7,CCn1cc(C(=O)N2CCN(c3ccc(OC)cc3)CC2)c(=O)c2cc(S(=O)(=O)N3CCCCC3)ccc21,20.1%
8,COc1ccc(OCCOc2ccc(N(C)S(=O)(=O)c3ccccc3)cc2)cc1,0.211%
9,Fc1ccc(NC(=S)NCCc2ccc(Cl)cc2)cc1,14%
10,Cc1ccc([N+](=O)[O-])cc1NC(=O)CCSc1ccc(Cl)cc1,9.53%
11,O=C(NCc1ccccn1)c1ccc(CNS(=O)(=O)c2cccc(C(F)(F)F)c2)cc1,-2.52%
12,CCN(CC)CCCNC(=O)CSc1c2c(nc3cc(Cl)ccc13)CCCC2,-29.8%
13,Cc1nc(N)sc1-c1csc(Nc2ccccc2)n1,11.7%
14,COc1ccc(NC(=O)C2CCN(S(=O)(=O)c3ccc(Br)s3)CC2)cc1OC,4.9%
15,CCC(=O)N(Cc1cc2cccc(C)c2[nH]c1=O)c1ccccc1OC,2.67%
16,COc1ccccc1C1CN(c2ccc(F)cc2F)N=C1c1cccs1 (stereo not drawn),0.748%
17,COCCCn1nnnc1SCC(=O)N1CCN(C(=O)c2ccco2)CC1,4.75%
18,Cn1cccc2[nH]c(=O)nc1-2,14.2%
19,COC(=O)c1cc(NC(=O)c2nn(C)c(=O)c3ccccc23)cc(C(=O)OC)c1,10.8%
20,N#C/C(=C\c1ccccc1[N+](=O)[O-])c1nc(C2CC2)cs1,14.9%

row,Compound,"hERG current change (%, negative = inhibition) at 1uM"
1,COc1ccc(CNC(=O)COc2ccc(S(=O)(=O)N3CCCCC3)cc2Cl)cc1,11.9%
2,O=C(COc1coc(CN2CCN(c3ccccc3F)CC2)cc1=O)NCC1CCCO1 (stereo not drawn),-6.09%
3,S=C(NCc1ccncc1)Nc1cc(Cl)cc(Cl)c1,-13.7%
4,O=C(c1ccccc1)N1CCCOC1c1ccccc1 (stereo not drawn),-4.61%
5,O=S1(=O)NC2CCCCCN2c2ccc(F)cc21 (stereo not drawn),-7%
6,O=[N+]([O-])c1ccc(NC(=S)N2CCc3ccccc3C2)cc1,8.39%
7,COc1ccc(C(=O)CNc2ccc(C)cc2C)cc1,15.4%
8,CC(C)CC(=O)N1CCN(C(=O)c2cccc(F)c2)CC1,4.6%
9,COc1cc(O)c(C(CC(=O)N2CCCC2)c2ccc(N(C)C)cc2)c(OC)c1 (stereo not drawn),21%
10,CC1=NN(c2ccccc2)C(=O)C1=C(C)C,14.5%
11,COc1ccc(-c2nc(CS(=O)CC(=O)NCc3ccc(F)cc3)c(C)o2)cc1 (stereo not drawn),12.5%
12,COc1cc(NS(=O)(=O)c2ccc(NC(=S)NC(=O)c3cccs3)cc2)nc(OC)n1,1.28%
13,CCOC(=O)C1(CC2CCCCO2)CCN(Cc2nc(-c3cccs3)oc2C)CC1 (stereo not drawn),-45.5%
14,CCOC(=O)C1CCCN(S(=O)(=O)Cc2ccccc2Cl)C1 (stereo not drawn),9.11%
15,COc1ccccc1/C=N/NC(=O)CC(=O)NC1CCCCC1,11.2%
16,CN1C(=O)C(=Cc2ccc(N3CCCCC3)o2)C(=O)N(C)C1=S,7.51%
17,Cc1ccccc1NC(=O)CSc1nnc(CNC(=O)c2ccc3c(c2)OCO3)n1C,12.7%
18,CC(C)CN(C(=O)CN1CCCCCC1)c1c(N)n(CC(C)C)c(=O)[nH]c1=O,16.7%
19,CC(C)N1C(=S)SC(C)(C)C1NO (stereo not drawn),7.95%
20,CC(=O)c1c(C)oc2ccc(NS(=O)(=O)c3ccc(O)c(C(=O)O)c3)cc12,13%
